Test results as given in PubChem BioAssay (Tox21).
This list was built around the results that the source calls inconclusive (neither active nor inactive); the mix of calls is not that of the screen. For some of these results: Where the call is inconclusive, the potency comes from a doubtful curve fit. Calls of active or inactive are those of the source. Unless noted, calls follow the shape of the dose curve; as a rule, active = well fitted curve in the direction sought with a large enough effect in the repeat runs; inconclusive = weak or mixed curves; inactive = no such curve, though single readings can be large; an effect the other way counts as inactive or inconclusive.

Key:
[1] = qHTS assay to identify small molecule that activate the aryl hydrocarbon receptor (AhR) signaling pathway - cell viability counter screen (AID 743086); also: potency is read from the fitted curve at half-maximal effect; nearly all actives have a fitted effect of over 45% in size
Method in brief: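 HepG2-AhR-luc (HG2L7.5c1) cells, 4000/well, treated 24 h at 37 C with compound; viability measured as CellTiter-Fluor fluorescence after 30 min in the same wells as the luciferase read.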

[2] = biological target: Peroxisome proliferator-activated receptor gamma (Homo sapiens) (UniProt P37231); assay: qHTS assay to identify small molecule agonists of the peroxisome proliferator-activated receptor gamma (PPARg) signaling pathway (AID 743094; active = well fitted activation curve with a large enough effect in the signal ratio in the repeat runs, not every such curve was filed as active; inconclusive = weak or mixed curves, or effect the other way; inactive = no such curve, though single readings can be large or run the other way; the % refers to the signal ratio; also: potency is read from the fitted curve at half-maximal effect; as to activation: % is scaled to controls: 0 for no effect and ±100 for the full control effect); conditions: HEK293H PPARg-UAS-bla, beta-lactamase FRET ratio, 17 h; activation: at 57 µM (top of the series) unless noted
Method in brief: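 Agonist activity was taken from a beta-lactamase reporter (FRET substrate, 1 h at room temperature) in HEK293H cells carrying a PPARg UAS-bla construct. Compounds in DMSO were incubated 17 h at 37C after a 5 h cell pre-incubation.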

[3] = qHTS assay for small molecule agonists of the antioxidant response element (ARE) signaling pathway (AID 743202; active = well fitted activation curve with a large enough effect in the signal ratio in the repeat runs, not every such curve was filed as active; inconclusive = weak or mixed curves, or effect the other way; inactive = no such curve, though single readings can be large or run the other way; the % refers to the signal ratio; also: potency is read from the fitted curve at half-maximal effect); conditions: HepG2 ARE-bla reporter, beta-lactamase FRET, 16 h; activation: at 73.3 µM (top of the series) unless noted
Method in brief: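 HepG2 ARE-bla reporter line, 2,000 cells/well; 5 h preincubation 37 C/5% CO2; compound (DMSO) 16 h 37 C; B/G FRET substrate 2 h RT; fluorescence intensity.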

[4] = qHTS assay for small molecule activators of the heat shock response signaling pathway (AID 743210; active = well fitted activation curve with a large enough effect in the signal ratio in the repeat runs, with a control signal flat, not every such curve was filed as active; inconclusive = weak or mixed curves; the % refers to the signal ratio; also: potency is read from the fitted curve at half-maximal effect); conditions: HeLa HSE-bla reporter, beta-lactamase ratio, 5 h; activation: at 62.6 µM (top of the series)
Method in brief: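 Beta-lactamase reporter read-out: FRET substrate fluorescence after 2.5 h at RT, following 5 h compound treatment at 37 C of HeLa cells carrying HSE-driven bla reporter; quantitative HTS format.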

[5] = qHTS assay to identify small molecule agonists of the peroxisome proliferator-activated receptor delta (PPARd) signaling pathway - cell viability counter screen (AID 743211); conditions: PPARd-bla HEK293H viability, CellTiter-Glo luminescence, 17 h; activity change, negative = cytotoxicity: at 62.6 µM (top of the series); also: potency is read from the fitted curve at half-maximal effect; nearly all actives have a fitted effect of over 55% in size
Method in brief: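 Viability was measured as CellTiter-Glo luminescence (30 min, room temperature) in the same wells as the beta-lactamase readout. GeneBLAzer PPARd UAS-bla HEK293H cells received compound after 5 h plating and were incubated 17 h at 37 C.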

[6] = biological target: Peroxisome proliferator-activated receptor delta (Homo sapiens) (UniProt Q03181); assay: qHTS assay to identify small molecule agonists of the peroxisome proliferator-activated receptor delta (PPARd) signaling pathway (AID 743212; calls by dose curve; also: potency is read from the fitted curve at half-maximal effect; as to activation: % is scaled to controls: 0 for no effect and ±100 for the full control effect); conditions: HEK293H PPARd-UAS-bla, beta-lactamase FRET ratio, 17 h; activation: at 62.6 µM (top of the series) unless noted
Method in brief: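 Read-out: beta-lactamase FRET fluorescence after 2 h room-temperature incubation with LiveBLAzer B/G substrate. Cells were HEK293H carrying a UAS-bla reporter for PPARd, treated at 37 C with DMSO-dissolved compounds.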

[7] = qHTS assay to identify small molecule antagonists of the peroxisome proliferator-activated receptor delta (PPARd) signaling pathway - cell viability counter screen (AID 743213); conditions: PPARd-bla HEK293H viability, CellTiter-Glo luminescence, 17 h; viability change, negative = cytotoxic: at 62 µM (top of the series) unless noted; also: potency is read from the fitted curve at half-maximal effect; nearly all actives have a fitted effect of over 50% in size
Method in brief: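 CellTiter-Glo was added to PPARd-bla HEK293H wells following 17 h compound treatment in the presence of 300 nM L165041. Luminescence was recorded after 30 min at room temperature.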

[8] = biological target: Peroxisome proliferator-activated receptor delta (Homo sapiens) (UniProt Q03181); assay: qHTS assay to identify small molecule antagonists of the peroxisome proliferator-activated receptor delta (PPARd) signaling pathway (AID 743215; active = well fitted inhibition curve with a large enough effect in the signal ratio in the repeat runs, not every such curve was filed as active; inconclusive = weak or mixed curves, or effect the other way; inactive = no such curve, though single readings can be large or run the other way; the % refers to the signal ratio;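 also: cells stimulated with agonist L165041 at 300 nM final during compound exposure; potency is read from the fitted curve at half-maximal effect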); conditions: HEK293H PPARd-UAS-bla, beta-lactamase FRET ratio, antagonist, 17 h; ratio activity, negative = inhibition: at 62 µM (top of the series) unless noted
Method in brief: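 Agonist L165041 (300 nM final) added with compound to PPARd-bla HEK293H UAS-bla reporter cells; 17 h incubation at 37 C. Read-out: LiveBLAzer FRET substrate, 2 h at room temperature, fluorescence intensity.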

[9] = biological target: Bile acid receptor (Homo sapiens) (UniProt Q96RI1); assay: qHTS assay to identify small molecule antagonists of the farnesoid-X-receptor (FXR) signaling pathway (AID 743217; active = well fitted inhibition curve with a large enough effect in the signal ratio in the repeat runs, not every such curve was filed as active; inconclusive = weak or mixed curves, or effect the other way; inactive = no such curve, though single readings can be large or run the other way; the % refers to the signal ratio; also: potency is read from the fitted curve at half-maximal effect; as to activity change, negative = inhibition: % is scaled to controls: 0 for no effect and ±100 for the full control effect); conditions: HEK293T FXR-UAS-bla, beta-lactamase ratio, CDCA-stimulated, 16 h; activity change, negative = inhibition: at 62.6 µM (top of the series) unless noted
Method in brief: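 Antagonist mode: chenodeoxycholic acid at 50 uM final stimulates a UAS-driven beta-lactamase reporter in HEK 293T FXR-bla cells during 16 h, 37C compound exposure. Read-out is FRET substrate fluorescence after 2 h at room temperature.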

[10] = qHTS assay to identify small molecule agonists of the farnesoid-X-receptor (FXR) signaling pathway - cell viability counter screen (AID 743218); conditions: FXR-bla HEK293T viability, CellTiter-Glo luminescence, 16 h; viability change, negative = cytotoxic: at 62.6 µM (top of the series) unless noted; also: potency is read from the fitted curve at half-maximal effect; nearly all actives have a fitted effect of over 45% in size
Method in brief: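 Viability counter screen in the same wells: CellTiter-Glo luminescence, 30 min room-temperature incubation, measured after the beta-lactamase read. Cells were GeneBLAzer FXR-UAS-bla HEK 293T, compound-treated 16 h at 37C.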

[11] = qHTS assay to identify small molecule antagonists of the farnesoid-X-receptor (FXR) signaling pathway - cell viability counter screen (AID 743221; active = well fitted cell-killing curve with a large enough effect in the repeat runs, not every such curve was filed as active; inconclusive = weak or mixed curves, or effect the other way; inactive = no such curve, though single readings can be large or run the other way; also: potency is read from the fitted curve at half-maximal effect; nearly all actives have a fitted effect of over 50% in size); conditions: FXR-bla HEK293T viability, CellTiter-Glo luminescence, 16 h; activity change, negative = cytotoxicity: at 62.6 µM (top of the series)
Method in brief: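 Cytotoxicity counter screen run in the FXR-bla reporter wells: HEK 293T cells exposed to compound with 50 uM (final) chenodeoxycholic acid for 16 h, 37 C, then viability measured by CellTiter-Glo luminescence after 30 min, room temperature.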

[12] = biological target: Vitamin D3 receptor (Homo sapiens) (UniProt P11473); assay: qHTS assay to identify small molecule agonists of the vitamin D receptor (VDR) signaling pathway (AID 743222; calls by dose curve; also: potency is read from the fitted curve at half-maximal effect); conditions: HEK293T VDR-UAS-bla, beta-lactamase FRET ratio, 16 h; activation: at 63.5 µM (top of the series) unless noted
Method in brief: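 Agonist mode, beta-lactamase reporter: fluorescence from LiveBLAzer B/G FRET substrate (2 h, room temperature) read after 16 h compound treatment at 37 C of VDR-bla cells, which were pre-incubated 4 h after seeding.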

[13] = qHTS assay to identify small molecule agonists of the vitamin D receptor (VDR) signaling pathway - cell viability counter screen (AID 743224); conditions: VDR-bla HEK293T viability, CellTiter-Glo luminescence, 16 h; activity change, negative = cytotoxicity: at 62.6 µM (top of the series) unless noted; also: potency is read from the fitted curve at half-maximal effect; nearly all actives have a fitted effect of over 50% in size
Method in brief: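 Counter screen run in the same wells as the VDR-bla reporter assay: CellTiter-Glo luminescence, 30 min at room temperature, after 16 h compound treatment at 37C of cells pre-plated for 4 h.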

[14] = biological target: Peroxisome proliferator-activated receptor gamma (Homo sapiens) (UniProt P37231); assay: qHTS assay to identify small molecule antagonists of the peroxisome proliferator-activated receptor gamma (PPARg) signaling pathway (AID 743191; calls by dose curve; also: nearly all actives have a fitted effect of over 30% in size; also: potency is read from the fitted curve at half-maximal effect); conditions: HEK293H PPARg-UAS-bla, beta-lactamase ratio, antagonist, 17 h; ratio activity, negative = inhibition: at 62.6 µM (top of the series) unless noted
Method in brief: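 GeneBLAzer PPARg UAS-bla HEK293H cells, 5 h post-plating, exposed to compounds 17 h at 37C. LiveBLAzer B/G FRET substrate added for 1 h at room temperature; beta-lactamase reporter read by fluorescence intensity.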

[15] = qHTS assay to identify small molecule antagonists of the peroxisome proliferator-activated receptor gamma (PPARg) signaling pathway - cell viability counter screen (AID 743194); conditions: PPARg-bla HEK293H viability, CellTiter-Glo luminescence, 17 h, co-treated with 50 nM rosiglitazone; activity change, negative = cytotoxicity: at 62.6 µM (top of the series) unless noted; also: potency is read from the fitted curve at half-maximal effect; nearly all actives have a fitted effect of over 55% in size
Method in brief: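 Cytotoxicity counter screen in PPARg-bla HEK293H cells, same wells as reporter assay. Compounds plus 50 nM rosiglitazone (final) for 17 h at 37 C, then viability read by CellTiter-Glo luminescence.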

[16] = biological target: Vitamin D3 receptor (Homo sapiens) (UniProt P11473); assay: qHTS assay to identify small molecule antagonists of the vitamin D receptor (VDR) signaling pathway (AID 743223; active = well fitted inhibition curve with a large enough effect in the signal ratio in the repeat runs, not every such curve was filed as active; inconclusive = weak or mixed curves, or effect the other way; inactive = no such curve, though single readings can be large or run the other way; the % refers to the signal ratio; also: potency is read from the fitted curve at half-maximal effect; as to activity change, negative = inhibition: % is scaled to controls: 0 for no effect and ±100 for the full control effect); conditions: VDR-UAS-bla HEK293T, beta-lactamase FRET ratio, 16 h; activity change, negative = inhibition: at 61 µM (top of the series) unless noted
Method in brief: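 Antagonist mode: compound added to VDR-bla cells alongside agonist 1alpha,25-dihydroxyvitamin D3 (3 nM final), incubation 16 h at 37C. Read-out is LiveBLAzer FRET fluorescence, 2 h at room temperature.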

[17] = qHTS assay for small molecule agonists of the antioxidant response element (ARE) signaling pathway - cell viability counter screen (AID 743203; calls by dose curve; also: potency is read from the fitted curve at half-maximal effect; nearly all actives have a fitted effect of over 55% in size); conditions: ARE-bla HepG2 viability, CellTiter-Glo luminescence, 16 h; viability change, negative = cytotoxic: at 73.3 µM (top of the series)
Method in brief: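 Viability counter screen: CellTiter-Glo luminescence, read after 30 min at room temperature, in ARE-bla HepG2 wells. Compound exposure lasted 16 h at 37C/5% CO2, following a 5 h pre-incubation of the cells after plating.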

[18] = qHTS assay for small molecule activators of the heat shock response signaling pathway - cell viability counter screen (AID 743209); conditions: HSE-bla HeLa viability, CellTiter-Glo luminescence, 5 h; activity change, negative = cytotoxicity: at 62.6 µM (top of the series) unless noted; also: % is scaled to controls: 0 for no effect and ±100 for the full control effect; nearly all actives have a fitted effect of over 50% in size
Method in brief: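 Cytotoxicity counter screen run in the same wells as the heat-shock bla reporter assay: HeLa HSE-bla cells, 5 h compound exposure at 37 C, viability read by CellTiter-Glo luminescence.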

[19] = biological target: Bile acid receptor (Homo sapiens) (UniProt Q96RI1); assay: qHTS assay to identify small molecule agonists of the farnesoid-X-receptor (FXR) signaling pathway (AID 743220; active = well fitted activation curve with a large enough effect in the signal ratio in the repeat runs, not every such curve was filed as active; inconclusive = weak or mixed curves, or effect the other way; the % refers to the signal ratio; also: potency is read from the fitted curve at half-maximal effect); conditions: HEK293T FXR-UAS-bla, beta-lactamase FRET ratio, 16 h; activation: at 62.6 µM (top of the series) unless noted
Method in brief: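 FXR-UAS-bla HEK 293T cells carrying a UAS-driven beta-lactamase reporter were plated for 5 h at 37C/5% CO2, then exposed to DMSO-dissolved Tox21 10K compounds for 16 h at 37C. A LiveBLAzer B/G FRET substrate was loaded for 2 h at room temperature before fluorescence reading.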

[20] = qHTS assay to identify small molecule antagonists of the vitamin D receptor (VDR) signaling pathway - cell viability counter screen (AID 743225); conditions: VDR-bla HEK293T viability, CellTiter-Glo luminescence, 16 h; viability change, negative = cytotoxic: at 61 µM (top of the series) unless noted
Method in brief: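 Cytotoxicity counter screen read by CellTiter-Glo luminescence (30 min, room temperature) in the same wells as the VDR-bla antagonist readout. HEK 293T VDR-UAS-bla cells had 16 h at 37C with compound and 3 nM (final) 1-alpha,25-dihydroxyvitamin D3, then 2 h with FRET substrate.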
Tags tell the direction and shape of the fitted curve or compound fluorescence and quenching.

Chain of UniProt Q03181 (Q03181 whole entry, looked up): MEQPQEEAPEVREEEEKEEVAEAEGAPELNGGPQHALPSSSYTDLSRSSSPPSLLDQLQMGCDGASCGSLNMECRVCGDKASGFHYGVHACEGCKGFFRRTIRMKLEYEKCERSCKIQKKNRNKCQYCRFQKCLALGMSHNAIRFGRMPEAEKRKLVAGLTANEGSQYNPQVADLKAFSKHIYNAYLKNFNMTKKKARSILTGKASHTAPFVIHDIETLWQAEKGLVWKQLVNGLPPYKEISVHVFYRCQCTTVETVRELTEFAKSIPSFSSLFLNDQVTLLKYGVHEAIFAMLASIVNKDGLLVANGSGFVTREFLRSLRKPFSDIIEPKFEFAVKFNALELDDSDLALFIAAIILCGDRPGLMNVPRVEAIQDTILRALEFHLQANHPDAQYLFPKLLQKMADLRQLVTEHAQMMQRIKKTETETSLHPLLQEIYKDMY
Chain of UniProt P37231 (P37231 whole entry, looked up): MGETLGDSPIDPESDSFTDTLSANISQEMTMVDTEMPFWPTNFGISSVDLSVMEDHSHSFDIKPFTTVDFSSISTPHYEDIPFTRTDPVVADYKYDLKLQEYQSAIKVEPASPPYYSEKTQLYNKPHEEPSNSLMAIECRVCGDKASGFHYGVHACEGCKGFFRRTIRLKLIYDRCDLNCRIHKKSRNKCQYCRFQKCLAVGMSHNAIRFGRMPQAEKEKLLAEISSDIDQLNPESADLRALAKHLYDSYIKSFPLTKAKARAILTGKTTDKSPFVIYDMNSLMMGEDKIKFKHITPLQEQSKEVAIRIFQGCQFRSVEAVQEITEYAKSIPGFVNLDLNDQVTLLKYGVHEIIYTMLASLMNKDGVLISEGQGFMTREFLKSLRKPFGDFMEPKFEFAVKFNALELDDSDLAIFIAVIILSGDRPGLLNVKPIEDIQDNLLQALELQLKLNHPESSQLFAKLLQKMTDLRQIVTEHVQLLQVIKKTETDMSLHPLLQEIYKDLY
Chain of UniProt P11473 (P11473 whole entry, looked up): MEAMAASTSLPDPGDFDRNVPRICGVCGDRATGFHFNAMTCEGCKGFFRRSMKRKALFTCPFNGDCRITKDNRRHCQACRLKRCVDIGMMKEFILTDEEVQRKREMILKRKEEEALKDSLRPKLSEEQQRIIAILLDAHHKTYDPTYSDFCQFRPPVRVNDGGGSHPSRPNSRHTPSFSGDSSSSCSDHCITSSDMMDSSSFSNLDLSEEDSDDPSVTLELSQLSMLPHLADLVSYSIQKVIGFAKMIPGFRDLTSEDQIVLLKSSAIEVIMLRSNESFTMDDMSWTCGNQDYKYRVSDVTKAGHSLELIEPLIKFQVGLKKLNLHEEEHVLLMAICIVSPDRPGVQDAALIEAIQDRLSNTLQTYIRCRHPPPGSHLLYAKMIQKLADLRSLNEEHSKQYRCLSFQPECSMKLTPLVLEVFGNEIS
Chain of UniProt Q96RI1 (Q96RI1 whole entry, looked up): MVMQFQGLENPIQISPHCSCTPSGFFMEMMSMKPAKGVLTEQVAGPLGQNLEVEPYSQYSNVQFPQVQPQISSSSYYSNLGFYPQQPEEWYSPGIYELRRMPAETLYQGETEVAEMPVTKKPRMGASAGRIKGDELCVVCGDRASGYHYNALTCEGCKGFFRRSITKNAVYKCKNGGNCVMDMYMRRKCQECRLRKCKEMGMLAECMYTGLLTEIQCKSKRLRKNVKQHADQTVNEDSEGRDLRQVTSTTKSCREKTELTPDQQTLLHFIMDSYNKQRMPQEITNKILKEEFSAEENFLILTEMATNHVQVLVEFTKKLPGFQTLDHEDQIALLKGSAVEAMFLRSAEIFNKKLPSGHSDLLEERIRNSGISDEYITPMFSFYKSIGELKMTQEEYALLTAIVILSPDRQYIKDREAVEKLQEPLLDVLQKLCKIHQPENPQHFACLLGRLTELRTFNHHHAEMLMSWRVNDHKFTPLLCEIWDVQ

S=C(SSSSSSC(=S)N1CCCCC1)N1CCCCC1
Potency [1]: active: 2390 nM
Potency [2]: inactive
Potency [3]: inconclusive: 53.5 nM [rising, full curve]
Potency [4]: inconclusive: 48.1 nM [falling, full curve, poor fit]
Potency [5]: active: 108 nM
Potency [6]: inconclusive: 215 nM [rising, full curve]
Potency [7]: active: 382 nM
Potency [8]: inconclusive: 382 nM [rising, full curve]
Potency [9]: inconclusive: 192 nM [full curve]
Potency [10]: inconclusive: 48.1 nM [cytotoxic, full curve, poor fit]
Potency [11]: inconclusive: 241 nM [falling, full curve]
Potency [12]: inconclusive: 304 nM [rising, full curve, poor fit]
Potency [13]: active: 271 nM

CC(Cc1ccc(O)c(O)c1)C(C)Cc1ccc(O)c(O)c1 (configuration not stated)
Potency [1]: inconclusive: 68600 nM
activation [2]: inconclusive: -15.1%
Potency [14]: inconclusive: 27500 nM [rising, partial curve, poor fit]
Potency [15]: inconclusive: 54900 nM [cytotoxic, single point]
Potency [3]: inconclusive: 30600 nM [falling, partial curve, poor fit]
activation [6]: inconclusive: 8.83%
Potency [8]: inconclusive: 21900 nM [fluorescent, partial curve]
activity change, negative = inhibition [9]: inconclusive: -22.4%
activity change, negative = inhibition [16]: inconclusive: 10.1%

[O-][n+]1ccccc1SSc1cccc[n+]1[O-]
Potency [1]: inconclusive: 150 nM [falling, full curve, poor fit]
Potency [2]: active: 674 nM
ratio activity, negative = inhibition [14]: inconclusive: -74.6% [at 29.1 µM]
Potency [3]: active: 3660 nM
Potency [17]: inconclusive: 5170 nM [cytotoxic, partial curve]
activity change, negative = cytotoxicity [18]: inconclusive: -2.77% [cytotoxic] [at 29.1 µM]
Potency [5]: active: 130 nM
Potency [7]: active: 206 nM
Potency [8]: inconclusive: 65.1 nM [inhibitor, full curve, poor fit]
Potency [9]: inconclusive: 130 nM [full curve]
Potency [10]: active: 326 nM
Potency [19]: inconclusive: 103 nM [rising, full curve]
Potency [11]: active: 206 nM
Potency [16]: inconclusive: 4650 nM [rising, partial curve]
Potency [20]: inconclusive: 5850 nM [cytotoxic, full curve, poor fit]
